From article PMC10668032
The other results are listed elsewhere or left out. At the low end of the ranking the order means little.

Target: SIX1 homeodomain (reference allele) (UniProt Q15475)
Test: universal protein binding microarray
Conditions: Universal all-10-mer PBM (8x60K, AMADID 030236), 300 nM GST-tagged protein, Alexa Fluor 488 anti-GST; buffer, salt, pH and temperature not stated; high values mean tight binding; most listed sequences are background and not binding sites; double strand, one strand shown

Row | Sequence | binding signal
1 | GGCTTACA | 0.00881 E-score
2 | ACTCCAAC | -0.162 E-score
3 | AAAGTACT | -0.138 E-score
4 | ACTTGTCC | -0.115 E-score
5 | CGGCACAA | -0.0988 E-score
6 | GTTCTCTA | 0.0596 E-score
7 | ATCTGCTC | 0.142 E-score
8 | GCCGATCC | 0.352 E-score
9 | TACAGGCA | -0.0517 E-score
10 | AACTTCAT | -0.158 E-score
11 | ACATGAGT | -0.0923 E-score
12 | CTGTAATC | 0.0894 E-score
13 | CACGTCCG | -0.24 E-score
14 | CGACAGCC | -0.255 E-score
15 | GTCGTACA | -0.17 E-score
16 | CTTCCGAA | -0.052 E-score
17 | GTGGACCA | -0.154 E-score
18 | GGCATAGA | 0.0984 E-score
19 | AGCTGGTC | -0.131 E-score
20 | ATCCTAGA | 0.245 E-score
21 | AACAGGTG | 0.0295 E-score
22 | CGAAGACA | 0.017 E-score
23 | ACCGCGGA | 0.232 E-score
24 | GACTTCTA | -0.297 E-score
25 | AGTTGCGA | 0.0524 E-score

Row | Sequence | binding signal
26 | TCCGAACA | -0.241 E-score
27 | ACTATCTG | 0.178 E-score
28 | CCTTGGGC | -0.00364 E-score
29 | CATATGGA | 0.0401 E-score
30 | ATGGGCTC | -0.041 E-score
31 | TAACATGA | 0.0049 E-score
32 | AATTTTTA | -0.255 E-score
33 | CCTTCGTA | -0.0751 E-score
34 | GGATCATA | 0.433 E-score
35 | GTCGTCTA | -0.111 E-score
36 | AAGAAATC | -0.202 E-score
37 | CTGGTGAA | -0.218 E-score
38 | AGTGCGTC | -0.279 E-score
39 | CAGTTTGA | 0.0166 E-score
40 | TAGCACCA | -0.0985 E-score
41 | AGTTCCCC | -0.0617 E-score
42 | CACTTGTC | 0.0936 E-score
43 | CCACATAA | -0.0434 E-score
44 | GGAGCGCC | 0.00257 E-score
45 | ATGATGTC | -0.153 E-score
46 | AAGCTGGT | -0.239 E-score
47 | AGTATCCA | 0.391 E-score
48 | CCAATTAG | 0.188 E-score
49 | AAAAAGTT | -0.197 E-score
50 | GACCATCA | -0.246 E-score

Row | Sequence | binding signal
51 | CCTTTCAC | -0.158 E-score
52 | ATGCGGGA | 0.0791 E-score
53 | AACTCATC | -0.027 E-score
54 | CTACGAGC | -0.0977 E-score
55 | TAAACAAA | -0.241 E-score
56 | ACTGATAG | 0.315 E-score
57 | AAGCGCCG | -0.155 E-score
58 | AGAATTAG | -0.237 E-score
59 | CAGTGGTC | -0.282 E-score
60 | ACGCGGAA | -0.22 E-score
61 | CGTCTAGC | 0.00937 E-score
62 | AGGCATAG | -0.11 E-score
63 | GCGGTACC | 0.149 E-score
64 | GTACCCCA | 0.0948 E-score
65 | AATGCTCC | -0.321 E-score
66 | GTGCCATA | -0.118 E-score
67 | ACCTATCG | 0.236 E-score
68 | AGGCGTGC | -0.223 E-score
69 | GGCCTCAA | -0.167 E-score
70 | GTCGCTTA | -0.0286 E-score
71 | GGCAAGAA | -0.0724 E-score
72 | CGGAGATA | 0.314 E-score
73 | CTTCTTGC | -0.0367 E-score
74 | CGAGGCGC | -0.0371 E-score
75 | AGGGGAAC | -0.168 E-score

Row | Sequence | binding signal
76 | AGGACGCC | -0.109 E-score
77 | TACGCGAA | -0.158 E-score
78 | GAGTAAGC | -0.19 E-score
79 | AACTCGAG | -0.102 E-score
80 | AACCCGTC | -0.0578 E-score
81 | CTACAATC | 0.074 E-score
82 | CGCTCCCA | -0.189 E-score
83 | ACCCGGGC | -0.0233 E-score
84 | AACCTTAC | -0.109 E-score
85 | GCGATTAA | 0.103 E-score
86 | GCTACAGA | -0.147 E-score
87 | CAAGGCAC | -0.15 E-score
88 | GTGGCAGA | -0.239 E-score
89 | ACCTGCAA | -0.0559 E-score
90 | CATGCCCA | -0.205 E-score
91 | CGGTCGAA | -0.241 E-score
92 | ACTCGTTC | -0.163 E-score
93 | GACTCCAA | -0.195 E-score
94 | ACAACAAA | -0.238 E-score
95 | GAGTGCGA | -0.116 E-score
96 | ACTGTCCC | -0.128 E-score
97 | CGTCGTTA | -0.149 E-score
98 | AACAACCT | -0.278 E-score
99 | CGAGTTTA | -0.155 E-score
100 | CACCCATG | 0.0507 E-score

Row | Sequence | binding signal
101 | GAACTGAA | -0.174 E-score
102 | AATTGATA | 0.344 E-score
103 | TATCTAAA | 0.301 E-score
104 | GTGTACAC | 0.222 E-score
105 | CGCCGTTC | -0.0508 E-score
106 | GACCCGAC | 0.086 E-score
107 | AGTGGTCG | -0.188 E-score
108 | ACCAAGCC | -0.0929 E-score
109 | ATTCCAGG | -0.0225 E-score
110 | GATGTGCC | -0.176 E-score
111 | CTCACACA | -0.12 E-score
112 | AAGGTAGA | 0.0599 E-score
113 | CAACACAC | -0.0362 E-score
114 | GAGTCTTA | -0.186 E-score
115 | GATACTCA | 0.429 E-score
116 | ATTCATCG | -0.0402 E-score
117 | ACTTGTCG | -0.0931 E-score
118 | AATTGTGT | -0.0358 E-score
119 | AGATTACC | 0.0512 E-score
120 | CCCACAAC | -0.106 E-score
121 | GGCAACGA | 0.0646 E-score
122 | CACCTTAA | 0.0259 E-score
123 | CTCTACCC | 0.0702 E-score
124 | CACATATA | 0.165 E-score
125 | CGTTCTAC | -0.149 E-score

Row | Sequence | binding signal
126 | AGATGGCT | 0.0116 E-score
127 | GGACGAAA | -0.254 E-score
128 | CGCGCAAG | -0.0149 E-score
129 | GTACCGAC | -0.0272 E-score
130 | AGCTAACA | -0.0587 E-score
131 | CGTAGGAG | -0.0882 E-score
132 | ACGTGGCC | -0.154 E-score
133 | ATCGGAGC | 0.0936 E-score
134 | ATTTACGA | -0.0498 E-score
135 | CGAAGTTA | -0.322 E-score
136 | CCGAGATC | 0.294 E-score
137 | TACCAGGA | 0.165 E-score
138 | TCATTCAA | -0.0677 E-score
139 | GAAGCGTA | 0.0129 E-score
140 | TGGACGAA | -0.201 E-score
141 | GACCGTCC | -0.121 E-score
142 | TGACGAAA | -0.183 E-score
143 | ATCTTCGG | 0.0796 E-score
144 | AGTTTATA | 0.0641 E-score
145 | GCGTTAGC | -0.199 E-score
146 | CAACGCCG | -0.0993 E-score
147 | CGCCACAC | -0.0535 E-score
148 | GACGTGAC | -0.24 E-score
149 | TCCATTAA | 0.0579 E-score
150 | GTGGTTAA | -0.213 E-score

Row | Sequence | binding signal
151 | CGGTCGAG | -0.0515 E-score
152 | GTCCACCA | -0.157 E-score
153 | GGATTTAA | -0.0649 E-score
154 | ATGACATA | 0.00711 E-score
155 | AGAAACCC | 0.0543 E-score
156 | CGAGCGGA | 0.061 E-score
157 | CATTGCGC | -0.279 E-score
158 | AAGCGAGC | -0.169 E-score
159 | CCTCTGTA | -0.0182 E-score
160 | ACGCAAAA | -0.129 E-score
161 | ATTAGTCC | 0.0194 E-score
162 | TGAACCCA | 0.0214 E-score
163 | GACCTCGC | -0.191 E-score
164 | ATAACGAT | 0.221 E-score
165 | GGCTTGAC | -0.155 E-score
166 | AATATAGC | 0.0273 E-score
167 | CATTACGG | -0.121 E-score
168 | ACTTCACC | -0.077 E-score
169 | GAACAAGC | -0.202 E-score
170 | CCGACGAG | -0.0344 E-score
171 | AGTCCATG | -0.193 E-score
172 | ATAACTTC | -0.16 E-score
